# Test results: PubChem BioAssay AID686979 (National Center for Advancing Translational Sciences (NCATS), 2013)
# Several values for one entry are separate records, joined by “and”; a condition that tells them apart may be missing. Equal values may be shown once. The whole screen tested about 420,000 compounds, of which about 50,000 (12%) were called active. This list was built around the results that the source calls inconclusive (neither active nor inactive); the mix of calls is not that of the screen. The call rests on the fitted dose curve; in most records, active means well fitted inhibition curve with a large enough effect; inconclusive means small, poorly fitted or top-dose-only effect; inactive means flat fitted curve, though single readings scatter. No potency is given beside an inconclusive call; the fits are too rough.
# Test: qHTS for Inhibitors of human tyrosyl-DNA phosphodiesterase 1 (TDP1): qHTS in cells in presence of CPT; further: nearly all actives have a fitted effect of over 55% in size
# Details: chicken DT40 Tdp1-/-;hTDP1 cells + 20 nM CPT, ATP luminescence, 48 h; activity change, negative = growth inhibition: at 46.2 µM (top of the series)
# Method in brief: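 Chicken DT40 Tdp1-/- cells complemented with human TDP1, 400 cells/well, exposed to compounds plus 20 nM camptothecin for at least 48 h at 37 C; viability read as ATP content by CellTiter-Glo luminescence.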
# On the % scale 0 is the no-effect control and ±100 the full control effect; potency means the concentration at half of the fitted maximal effect; tags describe the fitted curve by direction and shape.
Structure (SMILES),Potency,"activity change, negative = growth inhibition"
COC(=O)c1cc(NS(=O)(=O)c2cccc(Cl)c2)ccc1N1CCOCC1,"inconclusive [inhibitor, single point]",–
Cc1ccccc1OCC(=O)NC(=S)Nc1ccc(S(=O)(=O)NC2CCCCC2)cc1,"inconclusive [inhibitor, single point]",–
CC(C)CN1CC[C@@]2(CCCN(C(=O)c3ccco3)C2)C1,–,inactive: 0.805%
CC1Cc2ccccc2N1C(=O)CN(C)CC(=O)Nc1ccc(OC(F)(F)F)cc1 (centres undefined),active: 14.6 µM,–
CCOC(=O)c1c(Nc2ccccc2)nnc(-c2ccccc2)c1-c1ccccc1,"inconclusive [inhibitor, single point]",–
Cc1ccc(C2(C)NC(=O)N(CC(=O)N(Cc3ccccc3)C(C)(C)C)C2=O)cc1 (centres undefined),"inconclusive [inhibitor, partial curve]",–
O=c1oc(-c2ccc(O)c(O)c2)cc2cc(O)cc(O)c12,"inconclusive [inhibitor, single point]",–
Cc1ccc(NC(=O)CCS(=O)(=O)c2cccc3nonc23)c(Br)c1,–,inactive: -19.3%
CSc1ccc(NS(=O)(=O)c2ccc(-n3cnnn3)cc2)cc1,"inconclusive [inhibitor, single point]",–
CCN(CC)C(=O)Cn1c(SCC(=O)Nc2ccc(C)c(C)c2)nc2ccccc21,"inconclusive [inhibitor, single point]",–
CC(C)N(Cc1nc(-c2ccccc2)no1)C(=O)C1CCCCC1,"inconclusive [inhibitor, single point]",–
Cc1ccccc1C(=O)Nc1nnc(-c2ccco2)o1,active: 20.6 µM,–
CCOc1ccc(NC(=O)CC2C(=O)N(c3ccc(OC)c(Cl)c3)C(=S)N2C2CC2)cc1 (centres undefined),–,inactive: 7.3%
CN1CCN(c2ncc3c(n2)CCN(Cc2ccccc2Cl)C3)CC1,"inconclusive [inhibitor, single point]",–
CCCCNCc1cc(Br)c(OCc2cccs2)c(OC)c1,"inconclusive [inhibitor, single point]",–
COCCn1c(SC(C)C(=O)NCC2CCCO2)nc2scc(-c3ccc(F)cc3)c2c1=O (centres undefined),–,inactive: -26.3%
COc1ccccc1C(CNC(=O)C1CC(=O)N(Cc2ccccc2)C1)N1CCCC1 (centres undefined),–,inactive: -2.31%
O=C(Nc1nc(-c2ccccc2)cs1)c1ccc(=O)[nH]c1,"inconclusive [inhibitor, single point]",–
CCOC(=O)c1cc(-c2ccccc2)nn1-c1ccccn1,–,inactive: -15.2%
NS(=O)(=O)c1ccc(NC(=O)Nc2ccc(Cl)cc2)cc1,–,inactive: -7%
Cc1cc2oc(C(=O)N(Cc3ccccc3)C3CCS(=O)(=O)C3)cc(=O)c2cc1C (centres undefined),"inconclusive [inhibitor, single point]",–
CC(C)(C)C(=O)NC1CC2CCCC(C1)N2C(=O)Nc1ccc(Cl)cc1 (centres undefined),–,inactive: 2.11%
CC(C)(C)C(=O)COC(=O)c1cc(S(=O)(=O)N2CCCCC2)ccc1N1CCOCC1,–,inactive: -4.64%
COc1cccc(C(=O)Nc2ccc3c(c2)CCCN3C(=O)c2cccs2)c1OC,active: 7.31 µM and active: 16.4 µM,–
CCc1ccc(-n2c(=O)c3cccnc3n2CC(=O)N(CC)c2cccc(C)c2)cc1,active: 23.1 µM,–

Structure (SMILES),Potency,"activity change, negative = growth inhibition"
Cc1ccc(NC(=O)CN2C(=O)C(c3ccccc3)=NC2(C)C)cc1C,–,inactive: 10.8%
Cc1ccccc1C(=O)Nc1ccccc1C(=O)OCc1cc(=O)n2nc(C3CC3)sc2n1,–,inactive: -11.9%
CCOc1cc(/C=N/NC(=O)c2cccnc2)ccc1O,–,inactive: -12.8%
COC(=O)c1ccc(CSc2nnc3n(Cc4ccccc4OC)c(=O)c4ccccc4n23)o1,"inconclusive [inhibitor, single point]",–
CCCOc1ccccc1Cn1c(=O)oc2ccc(C)cc21,"inconclusive [inhibitor, single point]",–
C[C@H]1CN([C@@H](C)CO)C(=O)c2c(c3ccccc3n2C)-c2ccccc2CO[C@H]1CN(C)Cc1cccc(F)c1,"inconclusive [inhibitor, single point]",–
O=C(Nc1ccccc1N1CCN(C(=O)c2ccccc2)CC1)c1ccc(Cl)cc1,"inconclusive [inhibitor, single point]",–
FC(F)(F)c1cccc(N2CCN(C(=S)NC3CCCC3)CC2)c1,"inconclusive [inhibitor, single point]",–
Cc1cccc(-c2cc(C(=O)Nc3ccncc3)c3ccccc3n2)c1,"inconclusive [inhibitor, single point]",–
COC(=O)C(C)NC(=S)N1CCN(c2c(F)cc3c(=O)c(C(=O)O)cn(C4CC4)c3c2OC)CC1C (centres undefined),"inconclusive [inhibitor, partial curve]",–
COc1ccc(CNC(=S)Nc2ccc3nc(N4CCOCC4)cc(C)c3c2)cc1,active: 20.6 µM,–
CN1C(=O)CSc2ccc(NC(=O)Nc3ccccn3)cc21,active: 29.1 µM,–
Cc1cccc(-c2nnc(SCC(=O)O)n2Cc2ccccc2)c1,–,inactive: 2.29%
CCOC(=O)C1=CNS(=O)(=O)NC1c1ccc(OC(C)=O)cc1 (centres undefined),–,inactive: -10.7%
CCOC(=O)C1(C)CCN1C(=O)c1ccc(C)cc1 (centres undefined),–,inactive: -1.25%
CCc1ccc(NC(=O)CSc2nnc(-c3nonc3NC(C)=O)n2-c2ccccc2)cc1,"inconclusive [inhibitor, single point]",–
Cc1onc(-c2ccccc2Cl)c1C(=O)NCc1nc(-c2ccccc2)no1,active: 9.2 µM,–
CCCNC(=O)c1cc(C2CCCCN2C(=O)c2ccccc2)on1 (centres undefined),–,inactive: -23.7%
Cc1ccc(S(=O)(=O)N2CCC(C(=O)OC(C)C(=O)N(C)c3ccccc3)CC2)cc1C (centres undefined),"inconclusive [inhibitor, partial curve]",–
Cc1c2cnn(-c3ccccc3)c(=O)c2c(C)n1CC(=O)NCc1ccc(Cl)cc1,–,inactive: -26%
CN(O)C(=O)Nc1ccc([N+](=O)[O-])cc1,"inconclusive [inhibitor, single point]",–
CCOC(=O)c1[nH]c(C)c(C(=O)N2CCN(c3ccc(OC)cc3)CC2)c1C,–,inactive: -21.1%
CNc1cnc(-c2ccc(F)c(F)c2F)cn1,–,inactive: 0.0228%
CCN(CC)C(=S)SCC(=O)Nc1cccc(C(F)(F)F)c1,–,inactive: -10.6%
COc1cccc(OCc2cc(C(=O)N(C)C3CC(C)(C)NC(C)(C)C3)no2)c1,–,inactive: -8.77%

Structure (SMILES),Potency,"activity change, negative = growth inhibition"
O=C1c2ccccc2C(=O)N1c1nc(-c2ccc(Cl)cc2)cs1,"inconclusive [inhibitor, single point]",–
CC(=O)Nc1ccc(NC(=O)CN(c2ccc(C(C)C)cc2)S(=O)(=O)c2ccccc2)cc1,–,inactive: -6.93%
CCSc1oc(-c2cccs2)nc1S(=O)(=O)c1ccccc1,"inconclusive [inhibitor, partial curve]",–
CCn1cc2nc(SCc3cccc(C(F)(F)F)c3)n(CCc3ccccc3)c(=O)c2n1,active: 23.1 µM,–
CN1CCN(c2ccc([N+](=O)[O-])cc2NC(=O)c2cccs2)CC1,"inconclusive [inhibitor, single point]",–
O=C(N/N=C/c1c[nH]c2ccccc12)c1cc(-c2cccc3ccccc23)n[nH]1,"inconclusive [inhibitor, single point]",–
CCOC(=O)N1CCN(C(=O)c2cc3cc(Br)ccc3oc2=O)CC1,"inconclusive [inhibitor, single point]",–
CCN1CCN(CC(O)COC(c2ccccc2)c2ccccc2C)CC1 (centres undefined),"inconclusive [inhibitor, single point]",–
O=C(CSc1nncs1)N1CCN(C(=O)c2ccco2)CC1,–,inactive: 10.3%
Nc1ccc(C(=O)N/N=C/c2sc(N3CCOCC3)nc2-c2ccccc2)cc1,"inconclusive [inhibitor, single point]",–
COc1ccccc1CN1C2CCCC1CC(NC(=O)/C=C/c1ccccc1)C2 (centres undefined),"inconclusive [inhibitor, single point]",–
Cc1ccc(-n2c(SCC(=O)N3CCC(C(=O)O)CC3)nc3ccccc3c2=O)cc1C,"inconclusive [inhibitor, single point]",–
Cc1cc(-c2n[nH]c(=S)n2/N=C/c2ccco2)n[nH]1,–,inactive: 1.05%
COc1ccccc1Nc1cc(C)nc2c(C)cccc12,–,inactive: -29.7%
COC(=O)CCNC(=O)Cc1c(C)n(C(=O)c2ccc(Cl)cc2)c2ccc(OC)cc12,"inconclusive [inhibitor, single point]",–
Cc1ccc(NC(=O)N2CCCN(C(=O)OC(C)(C)C)CC2)cc1Cl,–,inactive: -8.83%
CCOc1ccc(NC(=O)Cn2cnc3nc4c(cc3c2=O)CCCC4)cc1,"inconclusive [inhibitor, partial curve, poor fit]",–
Cc1ccc(NC(=O)N(Cc2ccc3c(c2)OCO3)Cc2cc3cc4c(cc3[nH]c2=O)OCCO4)cc1,active: 18.4 µM,–
COc1cc2c(cc1OC)CN(C(=O)c1cc(Cl)nc(Cl)c1)CC2,"inconclusive [inhibitor, partial curve]",–
CCCc1cc(=O)oc2cc(C)cc(OC(=O)c3ccco3)c12,active: 23.1 µM,–
c1ccc(CSc2ccc(-c3ccccn3)nn2)cc1,"inconclusive [inhibitor, single point]",–
CCS(=O)(=O)Nc1ccc(C(=O)CC2(O)C(=O)Nc3ccc(Br)cc32)cc1 (centres undefined),active: 20.6 µM,–
COc1ccc(Br)c(Cn2c(C)c(C(=O)NCc3ccc(F)cc3)sc2=O)c1,"inconclusive [inhibitor, single point]",–
Nc1ccc2c3c(ccc([N+](=O)[O-])c13)CC2,"inconclusive [inhibitor, partial curve]",–
